In publication PMC10716077 one finds binding data, which are given here for nine molecules.

Results are given in words; binding and its absence hold for the method and conditions named. In cells and extracts the contact can be indirect. Some entries that bind do so weakly or less than the wild type. Where a sequence is shown, tags or fusion partners need not be part of it.

The experiment addresses T1, GST–Ino2 TAD2 (aa 101–135) (S. cerevisiae) (UniProt P26798).
T1 sequence: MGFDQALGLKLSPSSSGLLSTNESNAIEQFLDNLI
Put plainly: pull-down; GST fusions (from E. coli) immobilized on GSH sepharose, incubated with total protein extract from E. coli containing the HA fusion; washed twice with buffer A1, eluted with free GSH; anti-HA blot; only the target purified.

B1: HA-Bdf1 (aa 1–686, full-length), synthesized in E. coli (protein, UniProt P35817 1-686)
chain: MTDITPVQNDVDVNGNNVNDDVSSNLKRPIDQGDPSNGLAEEENPANNQLHLKKARLDGDALTSSPAGLAENGIEGATLAANGENGYNATGSGAEDEQQGLKKEEGGQGTKQEDLDENSKQELPMEVPKEPAPAPPPEPDMNNLPQNPIPKHQQKHALLAIKAVKRLKDARPFLQPVDPVKLDIPFYFNYIKRPMDLSTIERKLNVGAYEVPEQITEDFNLMVNNSIKFNGPNAGISQMARNIQASFEKHMLNMPAKDAPPVIAKGRRSSAQEDAPIVIRRAQTHNGRPKRTIHPPKSKDIYPYESKKPKSKRLQQAMKFCQSVLKELMAKKHASYNYPFLEPVDPVSMNLPTYFDYVKEPMDLGTIAKKLNDWQYQTMEDFERDVRLVFKNCYTFNPDGTIVNMMGHRLEEVFNSKWADRPNLDDYDSDEDSRTQGDYDDYESEYSESDIDETIITNPAIQYLEEQLARMKVELQQLKKQELEKIRKERRLARGSKKRGKRSKGRSGSKNASSKGRRDKKNKLKTVVTYDMKRIITERINDLPTSKLERAIDIIKKSMPNISEDDEVELDLDTLDNHTILTLYNTFFRQYESSSGASNGLDGTSGVTRDASSLSPTSAGSRKRRSKALSQEEQSRQIEKIKNKLAILDSASPLSQNGSPGQIQSAAHNGFSSSSDDDVSSESEEE
In the case of B1, the binding entry is reported as “binds”.

B2: HA-Bdf1 aa 273–436 (domain or fragment, UniProt P35817 273-436)
chain: EDAPIVIRRAQTHNGRPKRTIHPPKSKDIYPYESKKPKSKRLQQAMKFCQSVLKELMAKKHASYNYPFLEPVDPVSMNLPTYFDYVKEPMDLGTIAKKLNDWQYQTMEDFERDVRLVFKNCYTFNPDGTIVNMMGHRLEEVFNSKWADRPNLDDYDSDEDSRTQ
B2: the binding result is listed as “binds”.

B3: Bdf1 aa 1–131 L52A K53A K54A (domain or fragment, UniProt P35817 1-131)
chain: MTDITPVQNDVDVNGNNVNDDVSSNLKRPIDQGDPSNGLAEEENPANNQLHAAAARLDGDALTSSPAGLAENGIEGATLAANGENGYNATGSGAEDEQQGLKKEEGGQGTKQEDLDENSKQELPMEVPKEP
B3: the binding entry was “binds”.

B4: Bdf1 aa 1–131 L26A K27A (domain or fragment, UniProt P35817 1-131)
chain: MTDITPVQNDVDVNGNNVNDDVSSNAARPIDQGDPSNGLAEEENPANNQLHLKKARLDGDALTSSPAGLAENGIEGATLAANGENGYNATGSGAEDEQQGLKKEEGGQGTKQEDLDENSKQELPMEVPKEP
Regarding B4, the binding entry was “binds”.

B5: Bdf1 aa 1–131 E84A N85A (domain or fragment, UniProt P35817 1-131)
chain: MTDITPVQNDVDVNGNNVNDDVSSNLKRPIDQGDPSNGLAEEENPANNQLHLKKARLDGDALTSSPAGLAENGIEGATLAANGAAGYNATGSGAEDEQQGLKKEEGGQGTKQEDLDENSKQELPMEVPKEP
For the molecule B5, the binding result is “binds”.

B6: Bdf1 aa 1–131 N17A V18A N19A (domain or fragment, UniProt P35817 1-131)
chain: MTDITPVQNDVDVNGNAAADDVSSNLKRPIDQGDPSNGLAEEENPANNQLHLKKARLDGDALTSSPAGLAENGIEGATLAANGENGYNATGSGAEDEQQGLKKEEGGQGTKQEDLDENSKQELPMEVPKEP
Take B6: the binding result is listed as “binds”.

B7: Bdf1 aa 1–131 L101A K102A K103A (domain or fragment, UniProt P35817 1-131)
chain: MTDITPVQNDVDVNGNNVNDDVSSNLKRPIDQGDPSNGLAEEENPANNQLHLKKARLDGDALTSSPAGLAENGIEGATLAANGENGYNATGSGAEDEQQGAAAEEGGQGTKQEDLDENSKQELPMEVPKEP
B7: the binding entry is reported as “binds”.

B8: HA-Bdf1 aa 1–131 (domain or fragment, UniProt P35817 1-131)
chain: MTDITPVQNDVDVNGNNVNDDVSSNLKRPIDQGDPSNGLAEEENPANNQLHLKKARLDGDALTSSPAGLAENGIEGATLAANGENGYNATGSGAEDEQQGLKKEEGGQGTKQEDLDENSKQELPMEVPKEP
Regarding B8, the binding entry is recorded as “binds”.

B9: HA-Bdf1 aa 1–272 (domain or fragment, UniProt P35817 1-272)
chain: MTDITPVQNDVDVNGNNVNDDVSSNLKRPIDQGDPSNGLAEEENPANNQLHLKKARLDGDALTSSPAGLAENGIEGATLAANGENGYNATGSGAEDEQQGLKKEEGGQGTKQEDLDENSKQELPMEVPKEPAPAPPPEPDMNNLPQNPIPKHQQKHALLAIKAVKRLKDARPFLQPVDPVKLDIPFYFNYIKRPMDLSTIERKLNVGAYEVPEQITEDFNLMVNNSIKFNGPNAGISQMARNIQASFEKHMLNMPAKDAPPVIAKGRRSSAQ
For B9, the binding entry is on record as “binds”.
